Measurements taken from PMC12820563.
The other results are listed elsewhere or left out. The list includes weakly bound sequences.

biological target: T1, MBP-FoxP3dN (UniProt Q99JB6); test: PD-seq (MBP pull-down with sequencing); settings: 20 mM Tris-HCl pH 7.5, 100 mM NaCl, 1.5 mM MgCl2, 0.4 uM protein, 0.1 uM dsDNA library, 30 min, room temperature, amylose pull-down; high values mean tight binding; double strand, one strand shown
T1 sequence: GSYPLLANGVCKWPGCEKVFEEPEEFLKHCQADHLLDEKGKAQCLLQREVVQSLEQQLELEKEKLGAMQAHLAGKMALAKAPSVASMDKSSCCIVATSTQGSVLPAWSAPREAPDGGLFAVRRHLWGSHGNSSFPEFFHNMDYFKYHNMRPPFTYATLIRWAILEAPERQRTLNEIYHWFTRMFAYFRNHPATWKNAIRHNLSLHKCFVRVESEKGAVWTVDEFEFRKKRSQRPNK

| Sequence | binding signal (RPM ratio (pull-down/input)) |
| --- | --- |
| GATGATTGTTCTCCCAGCTGATGAATTTGAAACCTCGAGTAAACAAATTTTCCTAATCTTTCTGTTCAAGCGCCATCTAC | 0.339 |
| GATGATTGTTCTCCCAGCTGATGAATTTAATATATCGAGTAAACAAATTTTCCTAATCTTTCTGTTCAAGCGCCATCTAC | 0.891 |
| GATGATTGTTCTCCCAGCTGATGAATTGTCGCCTTCGAGTAAACAAATTTTCCTAATCTTTCTGTTCAAGCGCCATCTAC | 2.66 |
| GATGATTGTTCTCCCAGCTGATGAATTATTCGACTCGAGTAAACAAATTTTCCTAATCTTTCTGTTCAAGCGCCATCTAC | 0.384 |
| GATGATTGTTCTCCCAGCTGATGAATTCAAGCGTTCGAGTAAACAAATTTTCCTAATCTTTCTGTTCAAGCGCCATCTAC | 1.08 |
| GATGATTGTTCTCCCAGCTGATGAATTATTGAGGTCGAGTAAACAAATTTTCCTAATCTTTCTGTTCAAGCGCCATCTAC | 0.344 |
| GATGATTGTTCTCCCAGCTGATGAATTGCGCCGATCGAGTAAACAAATTTTCCTAATCTTTCTGTTCAAGCGCCATCTAC | 1.06 |
| GATGATTGTTCTCCCAGCTGATGAATTCCTGACGTCGAGTAAACAAATTTTCCTAATCTTTCTGTTCAAGCGCCATCTAC | 0.236 |
| GATGATTGTTCTCCCAGCTGATGAATTGTTCCGGTCGAGTAAACAAATTTTCCTAATCTTTCTGTTCAAGCGCCATCTAC | 0.264 |
| GATGATTGTTCTCCCAGCTGATGAATTCACGGTTTCGAGTAAACAAATTTTCCTAATCTTTCTGTTCAAGCGCCATCTAC | 0.47 |
| GATGATTGTTCTCCCAGCTGATGAATTTTCTAGCTCGAGTAAACAAATTTTCCTAATCTTTCTGTTCAAGCGCCATCTAC | 0.238 |
| GATGATTGTTCTCCCAGCTGATGAATTGTAGGTCTCGAGTAAACAAATTTTCCTAATCTTTCTGTTCAAGCGCCATCTAC | 0.759 |
| GATGATTGTTCTCCCAGCTGATGAATTGACAAAGTCGAGTAAACAAATTTTCCTAATCTTTCTGTTCAAGCGCCATCTAC | 0.248 |
| GATGATTGTTCTCCCAGCTGATGAATTTGTTTCCTCGAGTAAACAAATTTTCCTAATCTTTCTGTTCAAGCGCCATCTAC | 5.92 |
| GATGATTGTTCTCCCAGCTGATGAATTCCTCTAGTCGAGTAAACAAATTTTCCTAATCTTTCTGTTCAAGCGCCATCTAC | 0.193 |
| GATGATTGTTCTCCCAGCTGATGAATTAAAAGACTCGAGTAAACAAATTTTCCTAATCTTTCTGTTCAAGCGCCATCTAC | 0.207 |

| Sequence | binding signal (RPM ratio (pull-down/input)) |
| --- | --- |
| GATGATTGTTCTCCCAGCTGATGAATTCGGAATATCGAGTAAACAAATTTTCCTAATCTTTCTGTTCAAGCGCCATCTAC | 0.414 |
| GATGATTGTTCTCCCAGCTGATGAATTTAGCGATTCGAGTAAACAAATTTTCCTAATCTTTCTGTTCAAGCGCCATCTAC | 1.28 |
| GATGATTGTTCTCCCAGCTGATGAATTTGCGTAGTCGAGTAAACAAATTTTCCTAATCTTTCTGTTCAAGCGCCATCTAC | 2.99 |
| GATGATTGTTCTCCCAGCTGATGAATTATACGTGTCGAGTAAACAAATTTTCCTAATCTTTCTGTTCAAGCGCCATCTAC | 0.678 |
| GATGATTGTTCTCCCAGCTGATGAATTTCTCTTTTCGAGTAAACAAATTTTCCTAATCTTTCTGTTCAAGCGCCATCTAC | 0.288 |
| GATGATTGTTCTCCCAGCTGATGAATTGGGCACTTCGAGTAAACAAATTTTCCTAATCTTTCTGTTCAAGCGCCATCTAC | 0.729 |
| GATGATTGTTCTCCCAGCTGATGAATTAGGCTTATCGAGTAAACAAATTTTCCTAATCTTTCTGTTCAAGCGCCATCTAC | 1.33 |
| GATGATTGTTCTCCCAGCTGATGAATTCGTAGGCTCGAGTAAACAAATTTTCCTAATCTTTCTGTTCAAGCGCCATCTAC | 0.496 |
| GATGATTGTTCTCCCAGCTGATGAATTGTGTGCTTCGAGTAAACAAATTTTCCTAATCTTTCTGTTCAAGCGCCATCTAC | 2.42 |
| GATGATTGTTCTCCCAGCTGATGAATTTAAGTGTTCGAGTAAACAAATTTTCCTAATCTTTCTGTTCAAGCGCCATCTAC | 1.03 |
| GATGATTGTTCTCCCAGCTGATGAATTTCTTCACTCGAGTAAACAAATTTTCCTAATCTTTCTGTTCAAGCGCCATCTAC | 0.269 |
| GATGATTGTTCTCCCAGCTGATGAATTAACTGCTTCGAGTAAACAAATTTTCCTAATCTTTCTGTTCAAGCGCCATCTAC | 0.288 |
| GATGATTGTTCTCCCAGCTGATGAATTGCTAGCATCGAGTAAACAAATTTTCCTAATCTTTCTGTTCAAGCGCCATCTAC | 1.34 |
| GATGATTGTTCTCCCAGCTGATGAATTCGTACTCTCGAGTAAACAAATTTTCCTAATCTTTCTGTTCAAGCGCCATCTAC | 0.539 |
| GATGATTGTTCTCCCAGCTGATGAATTCGTTCGTTCGAGTAAACAAATTTTCCTAATCTTTCTGTTCAAGCGCCATCTAC | 0.42 |
